Measured values from publication PMC9911399, “Two distinct binding modes provide the RNA-binding protein RbFox with extraordinary sequence specificity”.
Residue numbers refer to the chain shown, from its start. Some of the results follow.

T1: RBFOX1 RRM RbFoxmut (Fox-RRM*) (Homo sapiens, UniProt Q9NWB1 109-208, R118D;E147R;N151S;E152T)
T1 sequence: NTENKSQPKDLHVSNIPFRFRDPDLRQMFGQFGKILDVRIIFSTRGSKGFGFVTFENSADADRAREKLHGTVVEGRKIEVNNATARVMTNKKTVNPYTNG

B1: AUUUGGG (DNA:RNA)
RNA: GGGAGACCGGAAUUCAGAUUGUCCAUUUGGGUUAAAUCCCGUCGUAGCCACCA
DNA 1: CAATCTGAATTCCGGTCTCCC
DNA 2: TGGTGGCTACGACGGGATT
B2: ACUACCU (DNA:RNA)
RNA: B1 RNA with U26C, U28A, G29C, G30C, G31U
DNA 1: CAATCTGAATTCCGGTCTCCC
DNA 2: TGGTGGCTACGACGGGATT
B3: CCUUUUU (DNA:RNA)
RNA: B1 RNA with A25C, U26C, G29U, G30U, G31U
DNA 1: CAATCTGAATTCCGGTCTCCC
DNA 2: TGGTGGCTACGACGGGATT
B4: UCCUGAA (DNA:RNA)
RNA: B1 RNA with A25U, U26C, U27C, G30A, G31A
DNA 1: CAATCTGAATTCCGGTCTCCC
DNA 2: TGGTGGCTACGACGGGATT
B5: GAAUCCC (DNA:RNA)
RNA: B1 RNA with A25G, U26A, U27A, G29C, G30C, G31C
DNA 1: CAATCTGAATTCCGGTCTCCC
DNA 2: TGGTGGCTACGACGGGATT
B6: CUCGGAA (DNA:RNA)
RNA: B1 RNA with A25C, U27C, U28G, G30A, G31A
DNA 1: CAATCTGAATTCCGGTCTCCC
DNA 2: TGGTGGCTACGACGGGATT
B7: GUGCAGA (DNA:RNA)
RNA: B1 RNA with A25G, U27G, U28C, G29A, G31A
DNA 1: CAATCTGAATTCCGGTCTCCC
DNA 2: TGGTGGCTACGACGGGATT
B8: GCCGGGG (DNA:RNA)
RNA: B1 RNA with A25G, U26C, U27C, U28G
DNA 1: CAATCTGAATTCCGGTCTCCC
DNA 2: TGGTGGCTACGACGGGATT
B9: UCAUCAA (DNA:RNA)
RNA: B1 RNA with A25U, U26C, U27A, G29C, G30A, G31A
DNA 1: CAATCTGAATTCCGGTCTCCC
DNA 2: TGGTGGCTACGACGGGATT
B10: GUUGUCA (DNA:RNA)
RNA: B1 RNA with A25G, U28G, G29U, G30C, G31A
DNA 1: CAATCTGAATTCCGGTCTCCC
DNA 2: TGGTGGCTACGACGGGATT
B11: CAAUCGU (DNA:RNA)
RNA: B1 RNA with A25C, U26A, U27A, G29C, G31U
DNA 1: CAATCTGAATTCCGGTCTCCC
DNA 2: TGGTGGCTACGACGGGATT
B12: GGUUUUG (DNA:RNA)
RNA: B1 RNA with A25G, U26G, G29U, G30U
DNA 1: CAATCTGAATTCCGGTCTCCC
DNA 2: TGGTGGCTACGACGGGATT
B13: GGCCACC (DNA:RNA)
RNA: GGGAGACCGGAAUUCAGAUUGUCCGGCCACCUUAAAUCCCGUCGUAGCCACCA
DNA 1: CAATCTGAATTCCGGTCTCCC
DNA 2: TGGTGGCTACGACGGGATT
B14: GAAACAU (DNA:RNA)
RNA: B13 RNA with G26A, C27A, C28A, A29C, C30A, C31U
DNA 1: CAATCTGAATTCCGGTCTCCC
DNA 2: TGGTGGCTACGACGGGATT
B15: CGUCGGU (DNA:RNA)
RNA: B1 RNA with A25C, U26G, U28C, G31U
DNA 1: CAATCTGAATTCCGGTCTCCC
DNA 2: TGGTGGCTACGACGGGATT
B16: GGUCCAA (DNA:RNA)
RNA: B13 RNA with C27U, A29C, C30A, C31A
DNA 1: CAATCTGAATTCCGGTCTCCC
DNA 2: TGGTGGCTACGACGGGATT
B17: AACAAGU (DNA:RNA)
RNA: B1 RNA with U26A, U27C, U28A, G29A, G31U
DNA 1: CAATCTGAATTCCGGTCTCCC
DNA 2: TGGTGGCTACGACGGGATT
B18: AUAAGAU (DNA:RNA)
RNA: B1 RNA with U27A, U28A, G30A, G31U
DNA 1: CAATCTGAATTCCGGTCTCCC
DNA 2: TGGTGGCTACGACGGGATT
B19: GGAUCGU (DNA:RNA)
RNA: B1 RNA with A25G, U26G, U27A, G29C, G31U
DNA 1: CAATCTGAATTCCGGTCTCCC
DNA 2: TGGTGGCTACGACGGGATT
B20: UUAUGCA (DNA:RNA)
RNA: B1 RNA with A25U, U27A, G30C, G31A
DNA 1: CAATCTGAATTCCGGTCTCCC
DNA 2: TGGTGGCTACGACGGGATT
B21: ACGAGCC (DNA:RNA)
RNA: B1 RNA with U26C, U27G, U28A, G30C, G31C
DNA 1: CAATCTGAATTCCGGTCTCCC
DNA 2: TGGTGGCTACGACGGGATT
B22: GACGUCC (DNA:RNA)
RNA: B13 RNA with G26A, C28G, A29U
DNA 1: CAATCTGAATTCCGGTCTCCC
DNA 2: TGGTGGCTACGACGGGATT
B23: GCCCCUC (DNA:RNA)
RNA: B13 RNA with G26C, A29C, C30U
DNA 1: CAATCTGAATTCCGGTCTCCC
DNA 2: TGGTGGCTACGACGGGATT
B24: CUAUUGA (DNA:RNA)
RNA: B1 RNA with A25C, U27A, G29U, G31A
DNA 1: CAATCTGAATTCCGGTCTCCC
DNA 2: TGGTGGCTACGACGGGATT
B25: UCUAUCU (DNA:RNA)
RNA: B1 RNA with A25U, U26C, U28A, G29U, G30C, G31U
DNA 1: CAATCTGAATTCCGGTCTCCC
DNA 2: TGGTGGCTACGACGGGATT
B26: AAAACUG (DNA:RNA)
RNA: B1 RNA with U26A, U27A, U28A, G29C, G30U
DNA 1: CAATCTGAATTCCGGTCTCCC
DNA 2: TGGTGGCTACGACGGGATT
B27: GGACAGC (DNA:RNA)
RNA: B13 RNA with C27A, C30G
DNA 1: CAATCTGAATTCCGGTCTCCC
DNA 2: TGGTGGCTACGACGGGATT
B28: CAACGUC (DNA:RNA)
RNA: B13 RNA with G25C, G26A, C27A, A29G, C30U
DNA 1: CAATCTGAATTCCGGTCTCCC
DNA 2: TGGTGGCTACGACGGGATT
B29: UGGCUUA (DNA:RNA)
RNA: B13 RNA with G25U, C27G, A29U, C30U, C31A
DNA 1: CAATCTGAATTCCGGTCTCCC
DNA 2: TGGTGGCTACGACGGGATT
B30: GGCCGUU (DNA:RNA)
RNA: B13 RNA with A29G, C30U, C31U
DNA 1: CAATCTGAATTCCGGTCTCCC
DNA 2: TGGTGGCTACGACGGGATT

How the values were obtained:
[1] = target: T1, RBFOX1 RRM RbFoxmut (Fox-RRM*); test: EMSA; HiTS-Eq, 1 nM pool, 10 min; buffer printed only for the single-RNA assays: 10 mM Tris pH 7.5, 150 mM NaCl, 3.4 mM EDTA, 0.001% NP-40, 30 C; details: tags: His6 N-terminal (pET28a); label: 5' 32P
In short: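 Purified RbFox RRM, wild type or mutant, was incubated for 10 min in 50 µL with 1 nM of a 5′-radiolabelled RNA pool carrying 7 randomized nucleotides, whose flanks were annealed to DNA oligonucleotides, over a series of increasing protein concentrations. Unbound RNA was resolved on 8% native PAGE, cut out, reverse-transcribed, barcoded by PCR and sequenced on an Illumina HiSeq 2500. Relative association constants were derived from changes in read counts for each RNA species versus the control reaction and normalised to the cognate motif.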

[2] = target: T1, RBFOX1 RRM RbFoxmut (Fox-RRM*); test: competition; 10 mM Tris pH 7.5, 150 mM NaCl, 3.4 mM EDTA, 0.001% NP-40, 30 C; details: tags: His6 N-terminal (pET28a)

Binder | binding signal [1] | binding signal [2] [nM]
B1 | 0.0751 KA relative to UGCAUGU | –
B2 | 0.0797 KA relative to UGCAUGU | –
B3 | 0.0758 KA relative to UGCAUGU | –
B4 | 0.0821 KA relative to UGCAUGU | –
B5 | 0.0694 KA relative to UGCAUGU | –
B6 | 0.0897 KA relative to UGCAUGU | –
B7 | 0.12 KA relative to UGCAUGU | –
B8 | 0.0837 KA relative to UGCAUGU | –
B9 | 0.077 KA relative to UGCAUGU | –
B10 | 0.115 KA relative to UGCAUGU | –
B11 | 0.0684 KA relative to UGCAUGU | –
B12 | 0.191 KA relative to UGCAUGU | –
B13 | 0.0497 KA relative to UGCAUGU | –
B14 | 0.0964 KA relative to UGCAUGU | –
B15 | 0.142 KA relative to UGCAUGU | –
B16 | 0.0995 KA relative to UGCAUGU | –

Binder | binding signal [1] | binding signal [2] [nM]
B17 | 0.0525 KA relative to UGCAUGU | –
B18 | 0.0909 KA relative to UGCAUGU | –
B19 | 0.354 KA relative to UGCAUGU | –
B20 | 0.192 KA relative to UGCAUGU | –
B21 | 0.113 KA relative to UGCAUGU | –
B22 | 0.0743 KA relative to UGCAUGU | –
B23 | 0.0605 KA relative to UGCAUGU | –
B24 | 0.122 KA relative to UGCAUGU | –
B25 | 0.0863 KA relative to UGCAUGU | –
B26 | 0.0621 KA relative to UGCAUGU | –
B27 | 0.0872 KA relative to UGCAUGU | –
B28 | 0.0611 KA relative to UGCAUGU | –
B29 | 0.129 KA relative to UGCAUGU | –
B30 | 0.0754 KA relative to UGCAUGU | –
UGCAUAU (ssRNA) | – | 203
